In publication PMC6794377 one finds binding data, which are given here for two substances.

Sequences of proteins named here, by UniProt entry; tags and fusion partners are left off. A change or cut given only in a name is not applied to a line headed by its entry.
UniProt Q9P2J5: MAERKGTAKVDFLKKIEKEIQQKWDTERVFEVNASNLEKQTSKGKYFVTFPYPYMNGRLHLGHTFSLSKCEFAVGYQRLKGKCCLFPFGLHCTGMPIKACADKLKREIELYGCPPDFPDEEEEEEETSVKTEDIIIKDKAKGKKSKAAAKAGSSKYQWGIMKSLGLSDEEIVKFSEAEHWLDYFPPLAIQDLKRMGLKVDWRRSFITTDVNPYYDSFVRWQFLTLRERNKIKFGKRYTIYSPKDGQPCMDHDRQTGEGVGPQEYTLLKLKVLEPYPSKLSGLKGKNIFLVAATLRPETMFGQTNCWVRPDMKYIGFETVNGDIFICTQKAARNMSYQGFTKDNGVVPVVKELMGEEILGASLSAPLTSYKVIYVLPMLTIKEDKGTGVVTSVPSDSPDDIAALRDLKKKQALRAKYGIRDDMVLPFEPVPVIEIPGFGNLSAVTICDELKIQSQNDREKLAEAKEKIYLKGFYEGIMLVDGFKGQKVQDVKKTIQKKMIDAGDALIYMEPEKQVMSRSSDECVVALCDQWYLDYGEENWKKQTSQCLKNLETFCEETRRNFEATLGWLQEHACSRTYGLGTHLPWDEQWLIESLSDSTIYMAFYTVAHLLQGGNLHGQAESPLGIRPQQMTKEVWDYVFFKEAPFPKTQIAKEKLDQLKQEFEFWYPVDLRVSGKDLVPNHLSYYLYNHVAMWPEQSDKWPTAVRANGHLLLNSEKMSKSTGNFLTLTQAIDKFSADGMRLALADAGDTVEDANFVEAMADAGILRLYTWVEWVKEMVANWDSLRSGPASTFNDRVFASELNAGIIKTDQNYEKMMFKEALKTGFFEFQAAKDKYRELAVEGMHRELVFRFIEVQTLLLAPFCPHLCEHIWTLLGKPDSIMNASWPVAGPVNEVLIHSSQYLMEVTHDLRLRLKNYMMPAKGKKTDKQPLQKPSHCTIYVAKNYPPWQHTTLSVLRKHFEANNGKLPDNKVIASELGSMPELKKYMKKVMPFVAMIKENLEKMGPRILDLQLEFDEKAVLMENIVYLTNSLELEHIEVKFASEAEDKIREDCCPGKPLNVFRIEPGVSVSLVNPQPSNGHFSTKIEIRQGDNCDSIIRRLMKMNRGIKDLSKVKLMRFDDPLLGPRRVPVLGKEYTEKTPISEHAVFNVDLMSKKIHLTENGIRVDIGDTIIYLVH

Assay [1] addresses T1, TLN161, N-terminal appended domain of hThrRS-L (Met1-Ile161), Gal4 DNA binding domain fusion (human) (UniProt A2RTX5).
T1 sequence: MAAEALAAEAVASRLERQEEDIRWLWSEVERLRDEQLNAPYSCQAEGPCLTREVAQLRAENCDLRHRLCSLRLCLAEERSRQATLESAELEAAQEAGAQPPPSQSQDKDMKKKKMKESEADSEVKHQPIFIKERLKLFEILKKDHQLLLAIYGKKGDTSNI
In words: two-hybrid; TLN161 with pGADT7 constructs of MSC components in Y2HGold; data not shown.

Assay [2] concerns the target T2, native hThrRS-L, endogenous in HEK293T (human (endogenous in HEK293T)) (UniProt A2RTX5).
T2 sequence: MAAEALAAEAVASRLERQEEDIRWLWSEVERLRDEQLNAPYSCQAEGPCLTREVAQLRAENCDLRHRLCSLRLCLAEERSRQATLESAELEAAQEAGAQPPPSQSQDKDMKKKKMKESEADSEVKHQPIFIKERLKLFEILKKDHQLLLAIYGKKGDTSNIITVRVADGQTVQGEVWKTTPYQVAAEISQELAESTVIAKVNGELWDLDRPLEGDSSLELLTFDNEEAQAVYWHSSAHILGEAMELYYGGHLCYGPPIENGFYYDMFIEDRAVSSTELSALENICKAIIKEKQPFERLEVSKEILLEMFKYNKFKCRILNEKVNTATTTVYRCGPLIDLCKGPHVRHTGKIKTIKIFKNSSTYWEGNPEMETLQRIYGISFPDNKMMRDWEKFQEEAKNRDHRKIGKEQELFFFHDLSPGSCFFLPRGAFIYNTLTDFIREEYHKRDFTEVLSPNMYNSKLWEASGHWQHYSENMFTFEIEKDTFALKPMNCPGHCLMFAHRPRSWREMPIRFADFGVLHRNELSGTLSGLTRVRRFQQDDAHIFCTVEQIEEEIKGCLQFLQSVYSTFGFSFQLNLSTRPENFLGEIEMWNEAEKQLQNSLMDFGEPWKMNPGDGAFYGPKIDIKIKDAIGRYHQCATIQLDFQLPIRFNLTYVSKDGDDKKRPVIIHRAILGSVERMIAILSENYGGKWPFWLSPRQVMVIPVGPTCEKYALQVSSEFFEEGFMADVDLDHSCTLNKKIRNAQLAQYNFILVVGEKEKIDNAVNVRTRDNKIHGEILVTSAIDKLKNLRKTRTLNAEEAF
In words: SEC; HEK293T whole cell lysate on Superose-6, 50 mM Tris-HCl pH 7.5, 50 mM NaCl, 1 mM PMSF, 1 mM DTT; fractions immunoblotted.

For assay [3], the target named is T3, hThrRS-L-Δ161-FLAG, hThrRS-L with TLN161 deleted, C-terminal FLAG tag (human) (UniProt A2RTX5).
T3 sequence: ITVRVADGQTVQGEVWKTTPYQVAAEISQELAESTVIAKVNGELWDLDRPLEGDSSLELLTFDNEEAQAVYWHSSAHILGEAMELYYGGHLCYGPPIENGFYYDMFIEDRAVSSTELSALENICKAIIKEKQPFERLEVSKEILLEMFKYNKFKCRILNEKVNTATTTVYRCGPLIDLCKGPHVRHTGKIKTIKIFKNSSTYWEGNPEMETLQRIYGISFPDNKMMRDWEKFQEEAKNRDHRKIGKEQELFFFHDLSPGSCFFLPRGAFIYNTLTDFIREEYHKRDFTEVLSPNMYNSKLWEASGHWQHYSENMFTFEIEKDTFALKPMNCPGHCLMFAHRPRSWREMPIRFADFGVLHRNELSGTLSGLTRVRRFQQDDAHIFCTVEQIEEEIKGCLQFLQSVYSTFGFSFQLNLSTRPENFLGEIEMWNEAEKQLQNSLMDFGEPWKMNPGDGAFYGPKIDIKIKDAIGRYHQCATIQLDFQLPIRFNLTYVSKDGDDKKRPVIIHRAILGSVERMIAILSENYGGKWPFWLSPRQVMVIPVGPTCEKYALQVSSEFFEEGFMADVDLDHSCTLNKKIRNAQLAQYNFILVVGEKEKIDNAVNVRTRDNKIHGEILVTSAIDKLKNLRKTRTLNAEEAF
In words: co-IP; FLAG-tagged hThrRS-L or mutant overexpressed in HEK293T; IP with anti-FLAG, Dynabeads protein G, 4°C; endogenous partners detected by western blotting. On the technique in general: Immunoblotting shows a protein as a band on a membrane.

Assay [4] addresses T4, C-terminal FLAG-tagged human threonyl-tRNA synthetase-like protein (hThrRS-L-FLAG) (human) (UniProt A2RTX5).
T4 sequence: T2 sequence
The description is as above.

Assay [5] has as its target T5, hThrRS-L-Ha/A-FLAG (human) (UniProt A2RTX5).
T5 sequence: T2 sequence with L15A, I22A, L25A, V29A, L32A
The description is as above.

Assay [6] addresses T6, hThrRS-L-Hb/A-FLAG (human) (UniProt A2RTX5).
T6 sequence: T2 sequence with L57A, L64A, L68A, L71A, L75A
Described as above.

Numbering of substitutions follows the chain as printed. Results are given in words; binding and its absence hold for the method and conditions named. For part of these data: Binding seen in cells or lysates may run through a third protein. Some entries that bind do so weakly or less than the wild type. For part of these data: Where a sequence is shown, tags or fusion partners need not be part of it.

As for “C-terminal appended domain of human LeuRS (Gly1066-His1176), Gal4 activation domain fusion (from UniProt Q9P2J5 1066-1176) (domain or fragment)”, the binding result in assay [1] is given as “binds weakly”.

“LeuRS, endogenous in HEK293T (from UniProt Q9P2J5 1-1176) (enzyme)”: the binding result in assay [2] is listed as “binds”; in assay [3], “no binding”; in assay [4] it was “binds”; in assay [5], “no binding”; in assay [6] it was “no binding”.
